PubChem BioAssay (Tox21)
Inconclusive results, whose numbers are uncertain, are shown with a selection of clear calls. Where a call stands in place of a potency, no number is given. Potencies beside an inconclusive call are fits to weak or partial responses and may not hold up. Activity calls are given as the source filed them. Unless noted, calls come from the whole dose curve; as a rule, active = well fitted curve in the direction sought with a large enough effect in the repeat runs; inconclusive = weak or mixed curves; inactive = no such curve, though single readings can be large; an effect the other way counts as inactive or inconclusive.

Experiments:
[1] = qHTS assay for identifying genotoxic compounds that show differential cytotoxicity against isogenic chicken DT40 cell lines with known DNA damage response pathways - Rad54/Ku70 mutant cell line (AID 743015); details: DT40 Rad54/Ku70 mutant viability, CellTiter-Glo, 40 h; series mostly up to 66.8 µM; note: nearly all actives have a fitted effect of over 60% in size
[2] = qHTS assay for identifying genotoxic compounds that show differential cytotoxicity against isogenic chicken DT40 cell lines with known DNA damage response pathways - Rev3 mutant cell line (AID 743014); details: chicken DT40 Rev3-/- viability, CellTiter-Glo, 40 h; series mostly up to 68.4 µM; note: nearly all actives have a fitted effect of over 55% in size
[3] = target: Androgen receptor (Homo sapiens) (UniProt P10275); test: qHTS assay to identify small molecule antagonists of the androgen receptor (AR) signaling pathway (AID 743035; active = well fitted inhibition curve with a large enough effect in the signal ratio in the repeat runs, not every such curve was filed as active; inconclusive = weak or mixed curves, or effect the other way; inactive = no such curve, though single readings can be large or run the other way; the % refers to the signal ratio); details: HEK293 AR-UAS-bla, R1881-stimulated, beta-lactamase FRET, 16 h; series mostly up to 58.5 µM
Method in brief: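 Quantitative HTS of the Tox21 10K library used HEK293 AR-UAS-bla cells stimulated with R1881 alongside compound for 16 h at 37C, followed by beta-lactamase FRET detection (LiveBLAzer B/G, 2 h, RT).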
Potency is the fitted concentration of half-maximal effect; tags give direction and shape of the fitted curve.

Sequence of UniProt P10275 (P10275 whole entry, looked up): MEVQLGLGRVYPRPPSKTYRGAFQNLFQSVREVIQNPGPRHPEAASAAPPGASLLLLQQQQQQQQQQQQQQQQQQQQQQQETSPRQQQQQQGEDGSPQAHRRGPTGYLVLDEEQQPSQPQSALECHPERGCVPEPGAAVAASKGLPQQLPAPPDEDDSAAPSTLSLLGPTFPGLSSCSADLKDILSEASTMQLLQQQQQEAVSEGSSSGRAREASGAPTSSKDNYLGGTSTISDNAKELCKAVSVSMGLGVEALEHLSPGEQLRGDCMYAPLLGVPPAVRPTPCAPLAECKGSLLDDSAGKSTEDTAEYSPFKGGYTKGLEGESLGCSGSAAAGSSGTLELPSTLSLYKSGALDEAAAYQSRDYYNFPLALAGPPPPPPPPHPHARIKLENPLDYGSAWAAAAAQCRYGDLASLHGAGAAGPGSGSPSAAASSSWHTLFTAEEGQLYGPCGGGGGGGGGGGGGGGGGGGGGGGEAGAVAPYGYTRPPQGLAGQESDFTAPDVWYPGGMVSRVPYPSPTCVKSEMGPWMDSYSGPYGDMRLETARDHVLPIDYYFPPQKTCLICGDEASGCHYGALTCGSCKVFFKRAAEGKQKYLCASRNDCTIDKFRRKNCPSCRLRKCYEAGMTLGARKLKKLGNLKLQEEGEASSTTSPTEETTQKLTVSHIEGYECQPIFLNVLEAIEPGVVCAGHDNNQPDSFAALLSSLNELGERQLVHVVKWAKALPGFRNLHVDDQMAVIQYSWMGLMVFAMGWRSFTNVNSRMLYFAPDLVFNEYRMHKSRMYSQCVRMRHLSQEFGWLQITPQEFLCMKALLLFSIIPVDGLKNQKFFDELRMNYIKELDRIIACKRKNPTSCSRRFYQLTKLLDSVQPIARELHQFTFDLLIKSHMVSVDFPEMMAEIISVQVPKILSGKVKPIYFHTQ

SMILES	Potency [1]	Potency [2]	Potency [3]
CCCC(=O)Nc1ccc(OCC(O)CNC(C)C)c(C(C)=O)c1 (stereo not drawn)	inactive	–	–
O=C(O)Cc1c[nH]c2ccccc12	inconclusive: 77 µM [cytotoxic, partial curve, poor fit]	inactive	–
CC(C)S	inactive	inactive	–
O=S(=O)(O)c1cc(Cl)c(Cl)cc1Cl	inactive	inconclusive: 68.6 µM [cytotoxic, single point]	inconclusive: 21.9 µM [rising, single point]
CCCCCOc1ccc(C2SC(=O)NC2=O)cc1OCC (stereo not drawn)	–	inconclusive: 10.6 µM [rising, partial curve, poor fit]	inconclusive: 12 µM [rising, partial curve, poor fit]
CN1C(C)(C)CC(O)CC1(C)C	inactive	inconclusive: 27.3 µM [cytotoxic, partial curve, poor fit]	–
CC(=O)OC(C)(C)C	inactive	–	–
